# Laboratory results as given in PMC9911399, “Two distinct binding modes provide the RNA-binding protein RbFox with extraordinary sequence specificity”.
# Where a chain is given by its changes, count along the chain named. This is one part of the list.
# T1: RBFOX1 RRM (Homo sapiens, UniProt Q9NWB1 109-208)
# T1 sequence: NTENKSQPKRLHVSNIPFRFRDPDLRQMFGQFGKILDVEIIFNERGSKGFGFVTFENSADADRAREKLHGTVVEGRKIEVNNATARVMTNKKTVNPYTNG
# B1: CCAACUC (DNA:RNA)
# RNA: GGGAGACCGGAAUUCAGAUUGUCCCCAACUCUUAAAUCCCGUCGUAGCCACCA
# DNA 1: CAATCTGAATTCCGGTCTCCC
# DNA 2: TGGTGGCTACGACGGGATT
# B2: AUCGUUC (DNA:RNA)
# RNA: B1 RNA with C25A, C26U, A27C, A28G, C29U
# DNA 1: CAATCTGAATTCCGGTCTCCC
# DNA 2: TGGTGGCTACGACGGGATT
# B3: ACAUAGA (DNA:RNA)
# RNA: B1 RNA with C25A, A28U, C29A, U30G, C31A
# DNA 1: CAATCTGAATTCCGGTCTCCC
# DNA 2: TGGTGGCTACGACGGGATT
# B4: GUCCAGG (DNA:RNA)
# RNA: GGGAGACCGGAAUUCAGAUUGUCCGUCCAGGUUAAAUCCCGUCGUAGCCACCA
# DNA 1: CAATCTGAATTCCGGTCTCCC
# DNA 2: TGGTGGCTACGACGGGATT
# B5: AAUGAUG (DNA:RNA)
# RNA: B4 RNA with G25A, U26A, C27U, C28G, G30U
# DNA 1: CAATCTGAATTCCGGTCTCCC
# DNA 2: TGGTGGCTACGACGGGATT
# B6: UCAAGCU (DNA:RNA)
# RNA: B1 RNA with C25U, C29G, U30C, C31U
# DNA 1: CAATCTGAATTCCGGTCTCCC
# DNA 2: TGGTGGCTACGACGGGATT
# B7: ACGUUUA (DNA:RNA)
# RNA: B1 RNA with C25A, A27G, A28U, C29U, C31A
# DNA 1: CAATCTGAATTCCGGTCTCCC
# DNA 2: TGGTGGCTACGACGGGATT
# B8: UGUACUG (DNA:RNA)
# RNA: B1 RNA with C25U, C26G, A27U, C31G
# DNA 1: CAATCTGAATTCCGGTCTCCC
# DNA 2: TGGTGGCTACGACGGGATT
# B9: GUUGUGC (DNA:RNA)
# RNA: B4 RNA with C27U, C28G, A29U, G31C
# DNA 1: CAATCTGAATTCCGGTCTCCC
# DNA 2: TGGTGGCTACGACGGGATT
# Molecular target: T1, RBFOX1 RRM
# Experiment: EMSA; HiTS-Eq, 1 nM pool, 10 min; buffer printed only for the single-RNA assays: 10 mM Tris pH 7.5, 150 mM NaCl, 3.4 mM EDTA, 0.001% NP-40, 30 C
# Conditions: tags: His6 N-terminal (pET28a); label: 5' 32P
# Outline: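 These values rest on relative association constants, computed from read-count changes of each RNA species versus the control reaction and normalised to the cognate motif. Reads came from free RNA recovered by 8% native PAGE after purified RbFox RRM (wild type or mutant) at increasing concentrations was equilibrated for 10 min in 50 µL with 1 nM of a 5′-radiolabelled pool with 7 randomized nucleotides and DNA-annealed flanks.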
row,Binder,binding signal
1,B1,0.00202 KA relative to UGCAUGU
2,B2,0.00992 KA relative to UGCAUGU
3,B3,0.00152 KA relative to UGCAUGU
4,B4,0.0174 KA relative to UGCAUGU
5,B5,0.0128 KA relative to UGCAUGU
6,B6,0.00676 KA relative to UGCAUGU
7,B7,0.00169 KA relative to UGCAUGU
8,B8,0.0177 KA relative to UGCAUGU
9,B9,0.0279 KA relative to UGCAUGU
